Assay results published in ChEMBL document CHEMBL4888484, “Replenishing the malaria drug discovery pipeline: Screening and hit evaluation of the MMV Hit Generation Library 1 (HGL1) against asexual blood stage Plasmodium falciparum ,using a nano luciferase reporter read-out” (2022).
In all, about 150,000 compounds went through this assay and about 540 (0.36%) showed an effect of 50% or more. The list shows a part of the results.

system: Plasmodium falciparum; test: Primary screen in NF54 nanoGlo assay, in single point, at 2uM, 72h; a lower Z score goes with more inhibition; assay type: functional, Erythrocyte; conditions: timepoint 72 hour

SMILES | % Inhibition [%] | Z score
CN(C[C@H]1CCCCO1)C1CCN(c2cccc(N3CCCC3=O)c2)CC1 | -5 | 0.76
Cc1cc2[nH]cc(C(=O)NCc3ccc(N4CCC[C@H](C)C4)cc3)c(=O)n2n1 | 1 | -0.25
Cc1nonc1C(=O)N1CCC(c2nc3ccccc3o2)CC1 | -17 | 3.26
Cc1nn(C)c2nc(-c3cccs3)cc(C(=O)N[C@@H](C)c3ccn(C)n3)c12 | 27 | -3
NC(=O)C1(NC(=O)c2ccc3c(c2)OCO3)CCOCC1 | -9 | 1.5
CC(C)(C)n1ncc2c1NC(=O)C[C@]21C(=O)Nc2c(Cl)cccc21 | 22 | -2.5
Cc1cc(Cl)c2oc(C(=O)NCCc3ccco3)c(C)c2c1 | -20 | 2.92
C[C@@H]1CN(Cc2ccccc2)CCN1C(=O)C1CCC(CNC(=O)OC(C)(C)C)O1 (stereo partly specified) | 2 | -0.16
Cc1nsc(C(=O)NCCC(C)C)n1 | -11 | 1.7
CCn1nccc1CN(C)C(=O)[C@@](C)(O)C1CCOCC1 | 4 | -0.59
COCCN(CC(C)C)C(=O)C(C)C(NC(=O)OC(C)(C)C)c1ccccc1 (stereo unspecified) | 2 | -0.34
O=C(c1ccccc1NCc1ccn(C2CCCC2)n1)N1CCC[C@H](O)C1 | -12 | 1.77
Cc1c(NC(=O)c2nn(-c3ccc(Cl)cc3)ccc2=O)c(=O)n(-c2ccccc2)n1C | 3 | -0.52
CC(C)(C)[C@H]1CCc2c(sc(NC(=O)c3ccccc3F)c2C(=O)N2CCCC2)C1 | -2 | 0.47
Clc1ccc(NC2(c3noc(Cn4cccn4)n3)CCC2)cc1 | -1 | 0.13
CCCn1c(=O)c(C(=O)O)c(Nc2ccc(Cl)cc2)c2ccccc21 | -8 | 1.11
OCc1cc(CO)c(O)c(CCc2ccccc2)n1 | -7 | 1.32
Fc1cccc(-n2ncnc2[C@H]2CCCNCC2)c1 | -3 | 0.27
CCn1ccc(CN(C)C2Cc3ccccc3C2)n1 | -1 | 0.22
COCc1nnc(C(=O)N(C)Cc2cccnc2)o1 | 1 | -0.23
O=C(NCCc1ccc(OC(F)F)cc1)c1ccc(S(=O)(=O)N2CCCCCC2)cc1 | -17 | 2.69

SMILES | % Inhibition [%] | Z score
O=C(Nc1nc(-c2ccccn2)cs1)c1cc(S(=O)(=O)N2CCCCC2)ccc1Cl | 2 | -0.32
CCN=C(NCC1CCCO1)NCC1CCOC1c1ccccc1 (stereo unspecified) | -2 | 0.3
CCCN(C(=O)Cn1ncc2c([nH]c3ccc(C)cc32)c1=O)c1ccc(F)cc1 | 4 | -0.67
CCCCN1CCN([C@@H](C(=O)NCc2cc(C)[nH]n2)c2ccccc2)C(=O)C1=O | -12 | 1.68
CN(Cc1cscn1)c1c(F)cc(S(N)(=O)=O)cc1Br | -2 | 0.38
CN(C)c1ccc(NC(=O)c2cccnc2Oc2ccc(F)cc2Br)nc1 | -2 | 0.39
O=C(CN1CCN(S(=O)(=O)c2cccs2)CC1)NCCc1ccc(Cl)cc1 | -9 | 1.18
Cc1cc(C(=O)N2CC[C@H](O)[C@@H](O)C2)ccc1F | 4 | -0.68
CCN(Cc1cnc2c(-c3ccccc3)cnn2c1)Cc1noc(C)n1 | -8 | 1.35
COCCOC1CN(C(=O)C(C)(C)N2CCOCC2)C1 | -6 | 0.99
Cc1cc([C@@H]2CCCCN2CCn2cc(Cl)cn2)no1 | -11 | 1.54
Cc1nc(CCS(=O)(=O)C[C@H]2CCCO2)cs1 | 12 | -1.16
CCO[C@H]1CCN(C(=O)c2ccc3c(c2)NC(=O)C3(C)C)C1 | 0 | -0.07
CCN1CCN(C2(C(=O)N3CCC[C@H](OC)C3)Cc3ccccc3C2)CC1 | 6 | -0.88
Cc1ccc(N2C[C@H](Cc3ccccc3)N(C(=O)c3c[nH]c(=O)[nH]3)CC2=O)cc1 | 4 | -0.6
Cc1cccc(CNS(=O)(=O)c2ccc3c(c2)sc(=O)n3CCC(=O)N2CCCCC2)c1 | 13 | -1.47
CS(=O)(=O)N1CC(C(=O)N2CCC[C@H]2C(F)(F)F)C1 | -2 | 0.25
Cc1cc(CN(C)CCCc2c(Cl)cccc2Cl)no1 | 2 | -0.37
Cc1ccc(O[C@H]2CCOC[C@H]2NC(=O)Cc2ccsc2)cn1 | 0 | 0.02
Cc1c(C(=O)O)cccc1S(=O)(=O)NCCN(C)C1CCCC1 | -11 | 1.6
Cc1cc(C(=O)N2CCCC[C@@H]2Cc2ccc(F)cc2)on1 | -14 | 1.78

SMILES | % Inhibition [%] | Z score
O=C(c1c[nH]c2ccccc12)C(O)C(c1ccc(Cl)cc1)N1CCNCC1 (stereo unspecified) | 3 | -0.34
Cn1cc(C2OCCC2CNCc2ccco2)cn1 (stereo unspecified) | 2 | -0.26
N#Cc1c(F)cccc1NC1(CCO)CCCC1 | 2 | -0.32
Cc1cc2nc(Cc3ccc(F)cc3)n([C@@H](C(=O)NCc3ccncc3)c3ccccc3)c2cc1C | 2 | -0.29
Cc1cccc(-c2nc([C@H]3CCOC3)no2)c1F | -10 | 2.1
Cc1ccc(-n2nc(N3CCN(S(=O)(=O)c4ccc5c(c4)CCCC5)CC3)ccc2=O)cc1 | 13 | -1.46
O=C1CC[C@H](C(=O)NCC2CC23CCc2ccccc23)N1 (stereo partly specified) | -9 | 1.01
Cc1ccsc1[C@H](CNC(=O)c1ccc2[nH]c(=O)[nH]c2c1)N(C)C | 7 | -1.1
CCOC(=O)c1ccc(NS(=O)(=O)C[C@H](OC)C(C)C)c(O)c1 | 6 | -0.59
Cc1csc(CN(C)Cc2nc(C(F)(F)F)no2)n1 | -8 | 1.36
COc1nccc(CNC2(c3ccc(F)cc3F)CCOCC2)n1 | -5 | 0.88
CCN=C(NCc1ccccn1)NCc1ccc(OC)cc1OC | -5 | 0.81
Cc1cnc([C@H](C)NC(=O)NCc2c(C)nc3ccccn23)s1 | -2 | 0.35
CC(=O)Nc1ccc(C)cc1S(=O)(=O)N1CC=C(c2c(C)n(Cc3ccc(Cl)cc3)c3ccccc23)CC1 | -14 | 1.87
CN(CC1CCC1)C(=O)NCc1nnn(C)n1 | -8 | 1.37
CCN(CC)S(=O)(=O)NC[C@H]1CCCN1C(=O)OC(C)(C)C | -7 | 0.69
COC[C@H]1CCN1C(=O)c1ccc(C(C)C)s1 | -6 | 0.57
COc1ccc(-c2cc(C(=O)NCCN3CCOCC3)c3cccc(-c4ccc(F)cc4)c3n2)cc1 | 3 | -0.43
Cc1cccnc1Nc1nc(C)c(C(=O)Nc2ccc3c(c2)OCO3)s1 | -7 | 1.03
CCC(CCO)CNS(=O)(=O)CC1CN(C(=O)OCc2ccccc2)CCO1 (stereo unspecified) | -9 | 1.15
COC(=O)[C@@H]1CC[C@@H](c2ccccc2)N1Cc1nc(C(C)C)no1 | -6 | 0.77

SMILES | % Inhibition [%] | Z score
CN1CCO[C@@H](CNC(=NC2CC2)NCc2ccccc2F)C1 | 0 | 0.06
O=C1NC[C@H]2CN(Cc3cc4ccccc4s3)CCN12 | -5 | 0.66
CC(=O)N[C@H]1C[C@@H](c2c(Cl)ccc(C)c2F)O[C@@H](C(C)C)C1 | -4 | 0.5
CC(C)c1ccc(C(=O)N2CC[C@@]3(CO)CN(Cc4ccccc4)C[C@H]3C2)cc1 | -12 | 2.14
COC1CCC(NC(=O)c2cnn3c2N[C@@H](C)C[C@H]3C(F)F)CC1 (stereo partly specified) | -3 | 0.3
O=C1NCCN(C(=O)c2ccc(-c3ccc(O)cc3F)cc2)[C@H]1CCO | -16 | 1.5
COc1nc(N(C)C)nc(N2CC(=O)N(c3ccc(Cl)cc3)C2=N)n1 | 3 | -0.33
CC(C)Cn1c(=O)c(-c2ccc(C(=O)Nc3ccc4c(c3)OCCO4)cc2)nc2ccccc21 | -23 | 2.27
OCCn1ccnc1-c1cccc(-c2ccco2)c1 | 1 | -0.12
CCOC1CC(NC(C)C2CN(C)CCO2)C1(C)C (stereo unspecified) | -9 | 1.22
CN(Cc1nnnn1-c1ccccc1)C1CCCCC1 | -14 | 1.46
C=CCN(C(=O)c1ccc(OCC(F)(F)F)nc1)C1CC1 | -18 | 2.38
O=C(Nc1cc(F)c(F)c(F)c1)N1CCC2(CCO2)CC1 | 5 | -0.87
O=C(Nc1cc(C(=O)NCCn2ccnc2)c2c(c1)ncn2C1CCCC1)c1ccccc1 | -9 | 1.53
Cc1noc(Cl)c1CCC(=O)N(C)c1cnn(C)c1 | -11 | 1.83
CCN=C(NCc1c(C)noc1C)N(C)Cc1cn(C)nc1C(C)C | 0 | -0.02
COc1ccccc1-n1c(=O)[nH]c2nc(NCc3cccnc3)ncc2c1=O | 1 | -0.13
CN(C)c1nc(N2CCN(c3ccccc3F)CC2)nc2c1CN(S(=O)(=O)c1ccccc1)CC2 | -1 | 0.1
CC(=O)N1N=C(c2cc(-c3ccccc3)nc3ccccc23)O[C@H]1c1ccc(C(F)(F)F)cc1 | 13 | -1.63
COc1cccc([C@@H]2CCCCN2Cc2ccc(N(C)C)nc2)c1 | -8 | 0.91
